The other results are listed elsewhere or left out.

This test relates to PfHDP1 homeodomain (GST-tagged). Briefly: gcPBM binding intensity (ln(normalized median fluorescence intensity)); higher = stronger DNA binding. A digest of the protocol:
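Plasmodium falciparum DNA-binding domains carrying a GST tag were expressed in E. coli and applied for 1 h, at about 25 μg on average, to an Agilent 4 × 180k array. The array held primer-extended double-stranded 36-bp intergenic genomic probes together with negative controls, and binding took place in 1× PBS with 1% milk, 0.2 mg/ml BSA, 0.5% salmon testes DNA and 0.03% Triton X-100. An Alexa488 anti-GST antibody detected bound protein, and the array was scanned at 488 nm. Binding intensity is taken as the highest Masliner-normalised natural-log median intensity across replicate spots of either probe orientation.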
For the sequence “TATGCAAGGAACCACACACACACACCGAAATGTATA [CACACA_site4573]”, the “gcPBM binding intensity (ln)” value was determined as 6.85. On to “TTTTTTATTAGTATCTGTACACATTGGTATTTGTAT [XGTACX_site6682]”, for which the “gcPBM binding intensity (ln)” value was 6.76. For “AATAAATAAATATATATATATATATAATATCATAAA [CACACA_negctrl_site337]”, the “gcPBM binding intensity (ln)” value was 6.48.

Regarding “ATATTGATGTATTGTTTTTTTTTTTTCTTTTTTTTT [CACACA_negctrl_site1238]”, the “gcPBM binding intensity (ln)” value was found to be 6.33.

Turning to “CCATGCATACATTCTTGTACACATTTCTATTATGAG [XGTACX_site39]”, the “gcPBM binding intensity (ln)” value was determined as 6.84. For “GAATTCAACAAAAAAAGTACTCTACATAAAATAATG [XGTACX_site175]”, the “gcPBM binding intensity (ln)” value was 6.48. “TTATAAAAGGACTTCTGTACGAATTTTTTTTAATAA [XGTACX_site1411]”: the “gcPBM binding intensity (ln)” value is 5.57. Turning to “GAACGAAACTTTCTTACACACATTGAAATTTTTTTC [CACACA_site1779]”, the “gcPBM binding intensity (ln)” value worked out at 6.78. For “TACTCACAATGGGGTCTACAAAAAAAAAAAAATAAA [XGTACX_negctrl_site229]”, the “gcPBM binding intensity (ln)” value came to 6.15. For the sequence “TCAAGAATTATATAAACACACATACATACACCCATA [CACACA_site5126]”, the “gcPBM binding intensity (ln)” value came to 7.03.

Consider “TTATAATAAACCTATACACACATAAATAAATAAATA [CACACA_site2581]”, for which the “gcPBM binding intensity (ln)” value is 6.68.

Turning to “TATGTATATATTTGTGCACACCAAAGTTTGATTTTA [CACACA_site1861]”, the “gcPBM binding intensity (ln)” value was found to be 11.4.

Regarding “AATAATATTTATTTTTGTACATATGTGCATTATAAA [XGTACX_site3682]”, the “gcPBM binding intensity (ln)” value was found to be 11.2. For the sequence “ATTAATTTTATATATGCACACAAAATATGTTCATAT [CACACA_site9350]”, the “gcPBM binding intensity (ln)” value is 9.89. Take “ATGATCATAAAACACACACACAAAAAAAAAAAAAAA [CACACA_site1805]”: the “gcPBM binding intensity (ln)” value was 6.32. Turning to “TAACATCCTAATGTCACACATGTTATAGGTTTAAAT [CACACA_site5649]”, the “gcPBM binding intensity (ln)” value turned out to be 6.22. Consider “TTCTGGTGTAAATGCACACAGAAGAAGAAAAAAAAA [CACACA_site3685]”, for which the “gcPBM binding intensity (ln)” value turned out to be 10.1. “TAATTTAATTTTCCAAGAAAAAAAAAAGAAAAAAGA [CACACA_negctrl_site1703]”: the “gcPBM binding intensity (ln)” value was 5.88. Then “TACACCAGTTGTGGGAGTACACAAAAAAAGGGAAAA [XGTACX_site6047]”, with 6.64; and “TTCTGTTCAAAATATGAACACACACCGATATATATA [CACACA_site8637]”, with 6.72.

As for “AAAAATATAAAGAAATGTACTTATAAAAATCCCTAC [XGTACX_site3824]”, the “gcPBM binding intensity (ln)” value was 6.27. Regarding “AATATCATAAAATAAAGTACAAATATATATTGAAAA [XGTACX_site8813]”, the “gcPBM binding intensity (ln)” value is 6.69. “TGCAGTCTGGAGAAAAGTACACAGTATCTGGTAGCT [XGTACX_site2013]”: the “gcPBM binding intensity (ln)” value is 6.14. For the sequence “CTTTATCTTTTTCATTGTACTTTATTTTAAAATTAA [XGTACX_site4858]”, the “gcPBM binding intensity (ln)” value stood at 6.86. On to AATAGATTTTTATGCGTGCACACATTTAACAAAAAA, for which the “gcPBM binding intensity (ln)” value was found to be 10.3. Then “GTGCTAGTATTTAATACACACAATTGAAGTTCCTGA [CACACA_site1452]”, with 6.61. “GCTTGTTCAAAAATGAGTACATACAAATAGTTGTAT [XGTACX_site1770]”: the “gcPBM binding intensity (ln)” value is 6.51. On to “TATTTATGTAGATACACACCCATGTTATATGGAGGT [CACACA_site3461]”, for which the “gcPBM binding intensity (ln)” value was determined as 6.32. For “TTTCTTTTTTTTTTTATTTACCTGAATTATGTATTA [TGCATGCA_negctrl_site345]”, the “gcPBM binding intensity (ln)” value is 6.35. On to “TTTGAAATATTTATTTGTACATATACACACTTAAAT [XGTACX_site8321]”, for which the “gcPBM binding intensity (ln)” value was found to be 6.48. Regarding “ATATTATTTTGTCAGGGTACATTCCATAAGTTTTTT [XGTACX_site6855]”, the “gcPBM binding intensity (ln)” value is 6.55. For the sequence “CTCGTATATATAATACGTACATATTATATATATATA [XGTACX_site1704]”, the “gcPBM binding intensity (ln)” value is 8.6. Then “TTTACATACAAATTAACACACATATAGAAAAGAGAA [CACACA_site1889]”, with 7.07. Consider “TCCTTTCTTTTTTAAACATGCATATGTAATATAAAT [TGCATGCA_site979]”, for which the “gcPBM binding intensity (ln)” value was 6.53. Turning to “AAAAAAAAAAAAAAAAAAACCACAAACAAATATGAA [TGCATGCA_negctrl_site34]”, the “gcPBM binding intensity (ln)” value was 6.84. In the case of “CCTTCATCATATTTAACACACAGAGAAAAAGCGGAT [CACACA_site274]”, the “gcPBM binding intensity (ln)” value was 7.28.

Turning to “ATAATATAATAATACACACTCATTATATATATAAAG [CACACA_site3956]”, the “gcPBM binding intensity (ln)” value stood at 6.65. “TTTTAAAATATATTTGTATATATATATATATATATA [XGTACX_negctrl_site536]”: the “gcPBM binding intensity (ln)” value is 9.48. For “AAAAAAAATAAACACACACACATACCCATAAATATA [CACACA_site5980]”, the “gcPBM binding intensity (ln)” value came to 7.01. For the sequence “TTTTGATATAAAAAAAGTACATTAATAATATTAATT [XGTACX_site4248]”, the “gcPBM binding intensity (ln)” value is 6.14. Then “TAAATAATAATAAATGTGCACAGGTATTAACAAAAA [GTGCAC_site9988]”, with 10.6; and “CAGTATTCTTCTATATGTACTTATTTAAATATTCTT [XGTACX_site7555]”, with 6.64. For the sequence “ATGATATGGATAAATACACACAATAAAATAATGTCT [CACACA_site6786]”, the “gcPBM binding intensity (ln)” value was 6.5. Then “TTTATTTATTTATGTTGTACAAGTTTATACTGGAAT [XGTACX_site6479]”, with 6.8. Then “TTTTAACAAAACAAAACAAAATAATATAAAGATAAC [TGCATGCA_negctrl_site154]”, with 7.09; and “AATCAAAATTCATTAACACACAATTTTAATATTCTT [CACACA_site5178]”, with 6.11. Then TATTTTTATAAGAGCATGCACTGTTTAAAATGGTAT, with 9.74; and “TTTTTTAAAATATGGACACACATATATATATATGTA [CACACA_site2784]”, with 6.44.

For “TAAAATTTAAAAAGGTGTACACTATAAATTAAAATA [XGTACX_site2081]”, the “gcPBM binding intensity (ln)” value amounted to 6.72. Then “AGAAAGAATGAAAAATGTACATATATGTAATAGCTA [XGTACX_site364]”, with 6.76; and “AGGTCACATTTGTCCTCACACATAGATAAATATATA [CACACA_site5460]”, with 6.31.

With “ATAATTTGATCAATTTTTCATTTTTCATTTTTTTAA [CACACA_negctrl_site1252]”, the “gcPBM binding intensity (ln)” value worked out at 6.48.

On to “GTCAAAAATAATATATGTACTTATAATAGATAAATG [XGTACX_site7755]”, for which the “gcPBM binding intensity (ln)” value stood at 6.44. As to “AATTAGCATTAAAAATGTACAAAAGAAAAAAATATA [XGTACX_site3816]”, the “gcPBM binding intensity (ln)” value was found to be 6.43. In the case of “ATAAAATCATTCAATGGTACAGAAATACAAAATGTA [XGTACX_site6739]”, the “gcPBM binding intensity (ln)” value is 6.48. Then “TTAACATATGACATTTTTTCACCCTTCCTTTATTTT [CACACA_negctrl_site1192]”, with 6.7.

(Values after the supplement of paper PMC11417369.)
